# Assay results taken from article PMC6919601, “Identification of Plasmodium dipeptidyl aminopeptidase allosteric inhibitors by high throughput screening” (PLoS ONE, 2019).
# Where “and” joins values, the source holds several entries; their conditions need not be identical. Equal entries are not always repeated. Screen size: about 110,000 compounds; about 230 (0.21%) showed an effect of 50% or more. Some of the results follow.
# Molecular target: DPAP1 (Plasmodium falciparum, UniProt Q8IIJ9)
# Test: primary screen, percent inhibition; read by cleavage of a fluorogenic dipeptide substrate; higher = more effect of the substance
# Parameters: species or system P. falciparum D10 trophozoite lysates; single well
# 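Note: 30 min substrate incubation versus DMSO and 10 µM JCP410 controls.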
# Chain of DPAP1 (Q8IIJ9 whole entry, looked up): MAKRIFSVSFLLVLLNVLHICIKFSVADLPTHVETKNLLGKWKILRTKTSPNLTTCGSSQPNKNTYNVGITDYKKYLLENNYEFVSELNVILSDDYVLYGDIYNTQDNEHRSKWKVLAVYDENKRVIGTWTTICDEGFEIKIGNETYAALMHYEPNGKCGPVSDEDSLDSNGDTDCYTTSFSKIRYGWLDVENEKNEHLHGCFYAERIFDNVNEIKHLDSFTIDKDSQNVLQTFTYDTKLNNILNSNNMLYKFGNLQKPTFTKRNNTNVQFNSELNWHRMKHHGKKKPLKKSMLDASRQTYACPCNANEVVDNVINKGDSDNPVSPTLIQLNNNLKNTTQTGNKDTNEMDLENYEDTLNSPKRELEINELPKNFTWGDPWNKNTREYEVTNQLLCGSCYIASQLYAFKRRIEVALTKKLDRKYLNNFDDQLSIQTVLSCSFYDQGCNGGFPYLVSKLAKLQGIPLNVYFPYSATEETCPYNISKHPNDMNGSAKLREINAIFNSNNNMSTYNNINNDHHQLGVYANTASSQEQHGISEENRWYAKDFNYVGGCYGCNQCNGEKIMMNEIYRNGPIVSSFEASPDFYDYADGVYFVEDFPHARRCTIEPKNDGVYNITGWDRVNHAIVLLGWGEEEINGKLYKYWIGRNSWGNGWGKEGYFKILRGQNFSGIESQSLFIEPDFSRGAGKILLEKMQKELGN
row,SMILES,% Inhibition @ 10 uM
1,O=C1C(c2ccccc2)=C(O)c2cnccc21,2.46% and -0.519%
2,CC(CCc1ccc(O)cc1)N1CCN(C/C=C/c2ccccc2)CC1 (centres unmarked),-1.81%
3,O=C(O)CNC(=O)CN1C(=O)c2ccc(C(=O)O)cc2C1=O,18.3%
4,COc1cc(OC)c(OC)cc1/C=C1\CS/C(=C\c2cc(OC)c(OC)cc2OC)C1=O,-8.69%
5,CCOC(=O)C1CCCN(Cc2ccc(OCC)cc2)C1 (centres unmarked),-0.192%
6,C=C(C)C(=O)Nc1ccc(O)c(-c2nc3cc(NC(=O)C(=C)C)ccc3o2)c1,5.63%
7,CCCSc1nnc(-c2ccc(Cl)cc2Cl)o1,-3.06%
8,O=C(O)C1CC(=O)N(Cc2ccccc2)/C(=N/c2ccc(Cl)cc2)S1 (centres unmarked),-0.171%
9,CCOC(=O)c1cc(-c2ccc(F)cc2)n(CC(=O)NCCC2=CCCCC2)c1C,-0.176%
10,O=C(Cn1c(-c2cccs2)cc2ccccc21)N1CCCCC1,-8.96%
11,CCOC(=O)c1cc(S(=O)(=O)N(C)Cc2ccccc2)cn1C,0.655%
12,CCCn1c2ccccc2c2cnn(CC(=O)N3CCc4ccccc4C3)c(=O)c21,0.691%
13,COC(=O)c1cn(C(=O)c2cnn3c(C(F)F)cc(-c4ccccc4)nc23)c2ccccc12,-0.958%
14,Cc1ccc(/C=C2N=C(/C=C/c3cccc(Cl)c3Cl)OC\2=O)o1,-0.597%
15,CCOc1ccc(-c2nc(CSCC(=O)N3CCN(C(=O)c4ccco4)CC3)c(C)o2)cc1,0.51%
16,Cc1nnc(SCC(=O)N2CCC(C(N)=O)CC2)c2nn(-c3ccccc3)c(C)c12,5.5%
17,Cc1ccc(C)n1CCc1c[nH]c2ccccc12,9.35%
18,COc1ccc(CC(=O)Nc2ccc(S(=O)(=O)N(C)Cc3ccccc3)cc2)cc1,3.17%
19,CC1=C(C(=O)NCc2cccc(Cl)c2)C2(CCC(C)CC2)OC1=O (centres unmarked),-5.58%
20,O=S(=O)(Nc1ccccc1Cl)c1ccccc1,-1.86%
21,O=C1c2ccccc2C(=O)N1c1nc2nc(-c3ccccc3)cc(O)n2n1,-0.0735%
22,c1ccc(-c2ccc(-c3nc(-c4ccccc4)no3)cc2)cc1,-1.99%
23,COc1cc(NC(=O)c2ccc3c(c2)C(=O)N(Cc2cccnc2)C3=O)c(C(=O)O)cc1OC,-0.185%
24,O=C(O)CN(CC(=O)O)Cc1cc(O)ccc1O,0.989%
25,Cc1ccc(C2=NN(CC(=O)NCCCN3CCC(Cc4ccccc4)CC3)C(=O)CC2)cc1,-4.83%

row,SMILES,% Inhibition @ 10 uM
1,O=C1NC(=S)S/C1=C\c1ccc(-c2ccccc2C(=O)O)o1,5.8%
2,COc1cc(OC)cc(C(=O)NC2CCCCC2)c1,2.48%
3,O=C(NCc1cccnc1)c1cccc2c1C(=O)N(C1CCCCC1)C2,-0.499%
4,COc1ccc(-c2noc(N3CCC(C(=O)NC4CCCCC4C)CC3)n2)cc1 (centres unmarked),5.8%
5,Cc1cc(C)c(NS(=O)(=O)c2ccc3c(c2)OCCO3)c(C)c1,-1.99%
6,CCC1=Nc2ncnn2C(c2cc(OC)c(OC)cc2OC)/C1=C(/O)OC (centres unmarked),3.32%
7,Cc1nnc2c3nnc(C)n3c3ccccc3n12,5.9%
8,Clc1ccc(CNc2ccc(CNc3nc[nH]n3)cc2)c(Cl)c1,3.49%
9,C(#Cc1ccccc1)CN1CCN(C(c2ccccc2)c2ccccc2)CC1,-0.239%
10,CCOc1ccc(-c2c(C)nn3c(-c4ccccc4)c(C(=O)NC(C)CC)cnc23)cc1OCC (centres unmarked),1.63%
11,CCOC(=O)c1c(CN(C)C)n(-c2ccccc2)c2cc(Br)c(OC)cc12,1.76%
12,Cc1ccc2oc(C(F)(F)F)cc(=O)c2c1,-0.233%
13,Cc1ccc(CNS(=O)(=O)c2c(C)nc3sccn3c2=O)cc1,-0.0709%
14,O=C1CCSc2c1cccc2C(=O)Nc1cccnc1Cl,-5.05%
15,c1ccc2c(c1)nc(NCCN1CCOCC1)c1nncn12,-4.21%
16,CS(=O)(=O)c1nc(S(=O)(=O)c2ccc(Cl)cc2)c(NCc2cccnc2)s1,-4.04%
17,CN(C)CCN(C)Cc1ccc(F)c(Br)c1,-0.833%
18,Cc1ccc(NC(=O)c2ccccc2C)cc1N,9.41%
19,COc1cc(OC)c2c(c1)ncc1c(C)nn(-c3ccccc3)c12,1.85%
20,COc1ccc(CCN2C(=O)CNCC2=O)cc1OC,1.42%
21,O=C(N/C(=C\c1ccco1)C(=O)N1CCN(c2ccccn2)CC1)c1ccccc1,-0.996%
22,Cc1sc(NC(=O)COc2ccc3ccccc3c2Br)c(C(N)=O)c1C,-1.06%
23,COc1ccc(Cn2c(=O)c3ccccc3n3c(-c4cccs4)nnc23)cc1,-1.72%
24,CC(C)C1CC(c2csc(N)n2)CCO1 (centres unmarked),4.54%
25,CCc1nnc(NS(=O)(=O)c2ccc(NC(=O)c3ccc([N+](=O)[O-])cc3)cc2)s1,2.86%
